{"source": "PubChem BioAssay AID504339", "about": "(National Center for Advancing Translational Sciences (NCATS), 2011)", "note": "Among all 390,000 compounds or so, about 17,000 (4.4%) were called active. Inconclusive results, whose numbers are uncertain, are shown with a selection of clear calls. The call rests on the fitted dose curve; in most records, active means well fitted inhibition curve with a large enough effect; inconclusive means small, poorly fitted or top-dose-only effect; inactive means no such curve, though single readings can be large or run the other way. A potency beside an inconclusive call is a rough fit, not a confirmed value. Potency means the concentration at half of the fitted maximal effect; tags describe the fitted curve by direction and shape."}
{"molecular_target": "Lysine-specific demethylase 4A (Homo sapiens) (UniProt O75164)", "sequence (O75164 whole entry, looked up, the tested form may be a part)": "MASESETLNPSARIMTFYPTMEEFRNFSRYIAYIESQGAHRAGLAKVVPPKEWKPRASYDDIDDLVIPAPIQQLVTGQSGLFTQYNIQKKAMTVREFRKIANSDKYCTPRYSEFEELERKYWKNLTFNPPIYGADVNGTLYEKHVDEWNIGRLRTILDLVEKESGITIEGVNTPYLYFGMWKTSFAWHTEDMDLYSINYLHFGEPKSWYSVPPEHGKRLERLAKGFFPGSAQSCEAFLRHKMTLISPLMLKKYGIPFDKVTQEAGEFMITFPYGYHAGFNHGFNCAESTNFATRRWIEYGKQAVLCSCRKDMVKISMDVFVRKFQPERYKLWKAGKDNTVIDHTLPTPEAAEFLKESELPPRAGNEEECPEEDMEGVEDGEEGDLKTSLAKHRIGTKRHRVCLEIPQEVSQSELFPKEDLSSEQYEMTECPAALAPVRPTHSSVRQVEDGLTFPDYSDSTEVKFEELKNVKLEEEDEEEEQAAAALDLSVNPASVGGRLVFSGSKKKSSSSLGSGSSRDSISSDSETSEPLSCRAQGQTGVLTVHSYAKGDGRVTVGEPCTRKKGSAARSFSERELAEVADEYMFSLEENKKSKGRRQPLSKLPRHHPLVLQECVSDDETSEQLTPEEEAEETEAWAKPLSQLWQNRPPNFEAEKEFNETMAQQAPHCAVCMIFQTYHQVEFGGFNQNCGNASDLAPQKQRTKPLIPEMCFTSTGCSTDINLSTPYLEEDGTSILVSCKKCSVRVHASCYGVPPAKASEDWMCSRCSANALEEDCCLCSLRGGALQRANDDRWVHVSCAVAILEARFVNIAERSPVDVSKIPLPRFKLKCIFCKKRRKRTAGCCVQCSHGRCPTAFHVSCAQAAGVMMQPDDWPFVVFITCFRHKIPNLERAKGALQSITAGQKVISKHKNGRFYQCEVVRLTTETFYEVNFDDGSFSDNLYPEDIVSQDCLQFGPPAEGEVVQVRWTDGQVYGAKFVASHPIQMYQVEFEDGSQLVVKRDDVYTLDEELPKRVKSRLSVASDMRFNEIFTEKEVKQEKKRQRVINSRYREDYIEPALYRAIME", "assay": "qHTS Assay for Inhibitors of JMJD2A-Tudor Domain; further: nearly all actives have a fitted effect of over 50% in size", "details": "AlphaScreen JMJD2A-Tudor / H3K4me3 peptide binding; series mostly up to 114 µM"}
{"smiles": "Cc1nnc(C)n1/N=C/c1cc(Br)ccc1O", "Potency": "active: 28.2 µM"}
{"smiles": "Cc1ccc(S(=O)(=O)N2CCN(CC(=O)NC3CCCc4ccccc43)CC2)c(C)c1", "note": "(centres undefined)", "Potency": "inconclusive: 14.1 µM [inhibitor, full curve, poor fit]"}
{"smiles": "CCOc1ccc(C(=O)CC(NCc2cccs2)C(=O)O)cc1", "note": "(centres undefined)", "Potency": "active: 89.1 µM"}
{"smiles": "COc1cc(/C=C2\\SC(=O)N(c3ccc(Cl)cc3)C2=O)cc([N+](=O)[O-])c1O", "Potency": "active: 7.94 µM"}
{"smiles": "CC(=O)N1CCC2(CC1)C/C(=N\\NC(=S)Nc1ccc(C)cc1)c1cc(O)ccc1O2", "Potency": "inconclusive: 39.8 µM [inhibitor, partial curve]"}
{"smiles": "CC(C)CC(=O)NC(NC(=S)Nc1sc2c(c1C#N)CCCC2)C(Cl)(Cl)Cl", "note": "(centres undefined)", "Potency": "inconclusive: 44.7 µM [inhibitor, partial curve]"}
{"smiles": "CCN(CC(=O)Nc1ccccc1C(F)(F)F)C(=O)c1ccc2[nH]c3c(c2c1)CC(C)CC3", "note": "(centres undefined)", "Potency": "inconclusive: 25.1 µM [inhibitor, full curve]"}
{"smiles": "Cc1ccc(/C=C/C(=O)Nc2nn[nH]n2)o1", "Potency": "active: 35.5 µM"}
{"smiles": "Cc1ccc(O)c(CNCCNCc2cc(C)ccc2O)c1", "Potency": "inconclusive: 0.708 µM [inhibitor, full curve, poor fit]"}
{"smiles": "O=C(COc1ccc(Cl)cc1Br)NCC(c1ccco1)N1CCCC1", "note": "(centres undefined)", "Potency": "inconclusive: 28.2 µM [inhibitor, partial curve]"}
{"smiles": "CCn1nc(C)cc1C(=O)Sc1cccc(Cl)c1", "Potency": "inactive"}
{"smiles": "CCN(CC)c1ccc(CNC23CN4CN(CN(C4)C2)C3)cc1", "Potency": "inconclusive: 79.4 µM [inhibitor, partial curve]"}
{"smiles": "Cc1cc(/C([O-])=C(/C(=S)Nc2ccc(F)cc2)[n+]2ccccc2)c(C)n1Cc1ccccc1Cl", "Potency": "inconclusive: 35.5 µM [inhibitor, partial curve]"}
{"smiles": "Cc1cc(F)ccc1S(=O)(=O)Nc1ccccc1C(=O)NC1CCN(Cc2ccccc2)CC1", "Potency": "inconclusive: 15.8 µM [inhibitor, partial curve]"}
{"smiles": "CCCCOc1ccc(C2c3c(-c4ccccc4O)n[nH]c3C(=O)N2Cc2ccncc2)cc1OC", "note": "(centres undefined)", "Potency": "inconclusive: 44.7 µM [inhibitor, partial curve]"}
{"smiles": "C#CCOCCOCCOCCNc1nc(N2CCN(C(=O)[C@H]([C@@H](C)O)n3cc(CCCCN)nn3)CC2)nc(N2CCN(C(=O)[C@H](C)n3cc(CCC(=O)O)nn3)CC2)n1", "Potency": "inactive"}
{"smiles": "Cc1ccc(C(C)C)cc1OCCOCCN1CCCC1", "Potency": "active: 7.08 µM"}
{"smiles": "CCOc1ccccc1NC(=O)COC(=O)CN(C)S(=O)(=O)c1ccc(C)cc1", "Potency": "active: 89.1 µM"}
{"smiles": "CCN(CC)CCOC(=O)c1ccc(NC(=O)c2ccc(Cl)c(S(=O)(=O)N3CCCCCC3)c2)cc1", "Potency": "inconclusive: 56.2 µM [inhibitor, partial curve]"}
{"smiles": "CCC(=O)N(CCc1ccc(S(N)(=O)=O)cc1)C1CC(=O)N(c2ccc(OC)cc2)C1=O", "note": "(centres undefined)", "Potency": "inactive"}
{"smiles": "CCOc1ccc(-n2c(C)nc3c(cnn3-c3ccc(C)cc3)c2=O)cc1", "Potency": "inactive"}
{"smiles": "CC1C/C(=N\\NC(=O)c2cccnc2)CC(C)(C)C1", "note": "(centres undefined)", "Potency": "inconclusive: 7.94 µM [inhibitor, full curve]"}
{"smiles": "CC(=O)c1cccc(NC(=O)Cn2c(SCC(=O)Nc3ccc(F)cc3)nc3ccccc32)c1", "Potency": "inactive"}
{"smiles": "CCOc1cc(C(=O)Nc2ccc3c(c2)OCO3)ccc1OC(F)F", "Potency": "inactive"}
{"smiles": "CCO[C@H]1OC(C(=O)NCc2ccccc2)=C[C@@H](C(C)(C)C)[C@@H]1CCCO", "Potency": "inactive"}
{"smiles": "Cc1ccccc1Cn1c(SCc2ccc(C(=O)NCc3cccs3)cc2)nc2ccncc21", "Potency": "inactive"}
{"smiles": "O=C(NC1=CC(=O)c2ccccc2C1=O)c1ccccc1", "Potency": "active: 20 µM"}
{"smiles": "Cc1cccc(OCc2nnc(SCC(=O)Nc3ccc(C)cc3C)o2)c1", "Potency": "inconclusive: 15.8 µM [inhibitor, partial curve]"}
{"smiles": "COc1cc(Cl)c(C)cc1NC(=O)COc1ccccc1[N+](=O)[O-]", "Potency": "inactive"}
{"smiles": "CCOC(=O)C1=C(CBr)NC(=O)NC1C", "note": "(centres undefined)", "Potency": "inconclusive: 56.2 µM [inhibitor, partial curve]"}
{"smiles": "C[C@@H]1CN([C@@H](C)CO)C(=O)c2cc(NS(C)(=O)=O)ccc2O[C@H]1CN(C)Cc1ccc(Oc2ccccc2)cc1", "Potency": "inconclusive: 50.1 µM [inhibitor, partial curve]"}
{"smiles": "COc1ccc(C2C3=C(CC(C)(C)CC3=O)Oc3ncn(Cc4ccco4)c(=N)c32)cc1", "note": "(centres undefined)", "Potency": "inconclusive: 44.7 µM [inhibitor, partial curve, poor fit]"}
{"smiles": "CCS(=O)(=O)c1c(Nc2ccc(F)c(Cl)c2)sc(C(=O)c2ccccc2)c1N", "Potency": "inconclusive: 17.8 µM [inhibitor, full curve]"}
{"smiles": "Cn1cccc1/C=C1\\SC(=S)N(NC(=O)c2ccccc2Cl)C1=O", "Potency": "inactive"}
{"smiles": "O=c1[nH]c2c(s1)C(c1ccccc1)C1C3CCC(C3)C1S2", "note": "(centres undefined)", "Potency": "inactive"}
{"smiles": "O=C(NCCOc1ccc(F)cc1)C1CCC(=O)N(CCN2CCOCC2)C1", "note": "(centres undefined)", "Potency": "inactive"}
{"smiles": "CN(C)c1oc(-c2ccco2)nc1S(=O)(=O)c1ccc(Br)cc1", "Potency": "inconclusive: 50.1 µM [inhibitor, partial curve]"}
{"smiles": "O=C(O)CCCCCN1C(=O)C(=O)/C(=C(/O)c2ccccc2)C1c1ccccc1", "note": "(centres undefined)", "Potency": "inconclusive: 31.6 µM [inhibitor, full curve, poor fit]"}
{"smiles": "Cc1c(CNCCCc2ccccc2)c(C(=O)O)c(C)n1Cc1ccc(Cl)cc1", "Potency": "inconclusive: 70.8 µM [inhibitor, single point]"}
{"smiles": "COc1ccccc1NC(=O)CN1C(=O)C(c2ccc(F)cc2)=NC1(C)C", "Potency": "inactive"}
{"smiles": "Cc1c(Cl)cccc1N1CC(c2nc3ccccc3n2Cc2ccccc2F)CC1=O", "note": "(centres undefined)", "Potency": "inactive"}
{"smiles": "CCCCCSc1nnc2c(n1)OC(c1ccc(C)s1)N(C(C)=O)c1ccccc1-2", "note": "(centres undefined)", "Potency": "inconclusive: 28.2 µM [inhibitor, partial curve]"}
{"smiles": "O=C(C1=C[C@H](c2ccc(C(F)(F)F)cc2)C[C@H](OCc2ccc(CO)cc2)O1)N1CCN(Cc2ccc3c(c2)OCO3)CC1", "Potency": "inconclusive: 15.8 µM [inhibitor, full curve, poor fit]"}
{"smiles": "COc1ccc2nc(N=Nc3ccc(N(C)C)cc3)sc2c1", "Potency": "inconclusive: 2.82 µM [inhibitor, full curve, poor fit]"}
